From the supplement of paper PMC10338343 come the findings set out here.

This experiment deals with MIWI (PIWIL1) piRISC loaded with L1MC piRNA (30 nt). Kind of experiment: pre-steady-state target cleavage rate (min^-1); MIWI and MILI are mouse PIWI proteins and EfPiwi is from a freshwater sponge; tags in brackets are library labels; higher = faster piRNA-guided slicing of the target. Conditions: guide: L1MC piRNA 5'p-UAACUAAAUACUAUGCAAGCUGUAGGUCCU
In outline:
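In Cleave-'n-Seq, a transcribed, DNA-blocked target RNA library (0.1 nM) was combined with 1 nM active affinity-purified piRISC bearing one synthetic guide, with or without 500 nM GTSF1 partner protein. Reactions ran in HEPES–potassium acetate buffer at 33 °C for 0–8 or 0–960 min. Uncleaved targets were sequenced and normalised to depth and to weakly complementary targets, three trials were pooled, and k3 was capped at 0.0001 min^-1. The pre-steady-state cleavage rate was obtained by fitting a burst-and-steady-state model.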

The mark [1] stands for this setting: auxiliary factor: 500 nM mouse GTSF1.
Setting [2] is: auxiliary factor: none (no GTSF1).

± gives the standard deviation. The entries are a selection whose mix differs from that of the whole data set.

For the sequence UGGACCUACAGCUUGCUUAGUAUUUAGAUA, the “pre-steady-state target cleavage rate” value by setting is: under setting [1], 0.477 ± 0.039; under setting [2], 0.0131 ± 0.0027.
For UCCUGCUUCAGCUUGCAAAGUAUUUAGUUA the same measures were 0.916 ± 0.041 and 0.0348 ± 0.0099.
As to UCCUGGAUCAGCUUGCAUAGUAAAUAGUUA, the “pre-steady-state target cleavage rate” value was found to be 0.282 ± 0.038 under setting [1] and 0.00642 ± 0.0024 under setting [2].
Turning to UCGACCUACAGCUUGCAUUGUUUUUAGUUA, the “pre-steady-state target cleavage rate” value is 0.104 ± 0.0094 under setting [1] and 0.00774 ± 0.0015 under setting [2].
Turning to UGGACCUUCAGCUUGCAUAGUAUUUUCAAA, the “pre-steady-state target cleavage rate” value reads like this: under setting [1], 0.217 ± 0.032; under setting [2], 0.00347 ± 0.0027.
For AGGACCUACAGCUUGCAUAGUAAUUAGUUA the same measures were 0.971 ± 0.067 and 0.0373 ± 0.0098.
Turning to UGGACCUACAGCUUGCAUAUAUUUAGUUA, the “pre-steady-state target cleavage rate” value runs as follows: under setting [1], 0.429 ± 0.067; under setting [2], 0.00298 ± 0.0022.
As to UCCUGGUACAGCUAGCAUAGUAUUUUGUUA, the “pre-steady-state target cleavage rate” value is, setting by setting: under setting [1], 0.32 ± 0.048; under setting [2], 0.0119 ± 0.0031.
For UCCUGGUACAGCCUUGCAUAGUAUUUAGUUA the same measures were 0.594 ± 0.049 and 0.0422 ± 0.0091.
For UCCUGGAUCAGCUUGCAUAGUAUAUAGAUA the same measures were 0.138 ± 0.025 and 0.0055 ± 0.003.
In the case of AGGACCUACUGCAUGCAUAGUAUUUAGUUA, the “pre-steady-state target cleavage rate” value reads like this: under setting [1], 1.3 ± 0.06; under setting [2], 0.0566 ± 0.01.
For UCGACGUACAGCUUGCAAAGUAUUUAGUUA the same measures were 1.26 ± 0.043 and 0.0364 ± 0.0077.
Turning to UCCUCCUACAGCUUGCAAUGUAUUUAGUUA, the “pre-steady-state target cleavage rate” value was 0.517 ± 0.031 under setting [1] and 0.00506 ± 0.0019 under setting [2].
For UCCUGGUACAGCUUGCAUUGUUUUUAGUUA the same measures were 0.0471 ± 0.0097 and 0.0111 ± 0.0034.
As to UCCUGGAUGUCCUUGCAUAGUAUUUAGUAUA, the “pre-steady-state target cleavage rate” value by setting is: under setting [1], 0.022 ± 0.0086; under setting [2], 0.00487 ± 0.0028.
For UCCUGGAACAGCUUGCUUAGUAUUUUGUUA the same measures were 0.529 ± 0.044 and 0.0329 ± 0.0085.
For UCCUGCUACAGCUUUCAUAGUAUUUAGUUA the same measures were 0.409 ± 0.031 and 0.0119 ± 0.0022.
For the sequence UCCUCCUACAGCAUGCAUACUAUUUAGUUA, the “pre-steady-state target cleavage rate” value was determined as 0.377 ± 0.021 under setting [1] and 0.0154 ± 0.0035 under setting [2].
For UCCUGGAACAGCUUGCAUAGUAUUUAUGUUA the same measures were 0.301 ± 0.025 and 0.0253 ± 0.0047.
For UCCUGGUACAGCUUGCAUAGUAUUUUCUUA the same measures were 0.0818 ± 0.03 and 0.00733 ± 0.0035.
For UCCUGCUACAGGUUGCAUAGAAUUUAGUUA the same measures were 0.314 ± 0.034 and 0.0168 ± 0.0057.
On to UCCUGGAUGAGCUUGCAAACUAUUUAGUUA, for which the “pre-steady-state target cleavage rate” value under setting [1] was 0.0326 ± 0.0046 and the “pre-steady-state target cleavage rate” value under setting [2] turned out to be 0.00628 ± 0.0028.
For UCCUGGUACAGCUUGCAUAGUAUUUACUUA the same measures were 0.158 ± 0.028 and 0.0162 ± 0.0034.
For UCCUGGAAGAGCUUGCAUAGUAUUUAGAAA the same measures were 0.311 ± 0.041 and 0.0061 ± 0.002.
For UCCUGGUACAGCUUGCAUAGUAUUUACGUUA the same measures were 0.474 ± 0.066 and 0.0252 ± 0.0062.
In the case of UCCUGGUACAGCUUGCAUACUAUUUACUUA, the “pre-steady-state target cleavage rate” value under setting [1] amounted to 0.104 ± 0.022 and the “pre-steady-state target cleavage rate” value under setting [2] is 0.0203 ± 0.0062.
For the sequence UCCUGGAACAGCUUGGAUAGUAUAUAGUUA, the “pre-steady-state target cleavage rate” value is, setting by setting: under setting [1], 0.491 ± 0.058; under setting [2], 0.0187 ± 0.0053.
In the case of UCCUGGAUCUGCUUGCAUAGUAUUUAGUUA, the “pre-steady-state target cleavage rate” value reads like this: under setting [1], 0.755 ± 0.036; under setting [2], 0.0225 ± 0.0057.
For UCCUCCUACUGCUUGCAUAGUAAUUAGUUA the same measures were 0.55 ± 0.026 and 0.0219 ± 0.0049.
For UCCUGCUACUGCAUGCAUAGUAUUUAGUUA the same measures were 1.02 ± 0.077 and 0.0216 ± 0.0045.
For UCCUGCUACAGCUUGCAUAGUAUUUCAGUUA the same measures were 0.556 ± 0.069 and 0.01 ± 0.0034.
UCCUGGAAGUCCUUGCAUAGUAUUUAGUUA: the “pre-steady-state target cleavage rate” value is, setting by setting: under setting [1], 0.175 ± 0.02; under setting [2], 0.0104 ± 0.0031.
With UCCUCCAACAGCUAGCAUAGUAUUUAGUUA, the “pre-steady-state target cleavage rate” value is, setting by setting: under setting [1], 0.684 ± 0.029; under setting [2], 0.0178 ± 0.0032.
On to UCCUGGAUCAGCUUGCUUAGUAUUUAGAUA, for which the “pre-steady-state target cleavage rate” value under setting [1] worked out at 0.351 ± 0.036 and the “pre-steady-state target cleavage rate” value under setting [2] was found to be 0.00934 ± 0.0028.
For UCCUCCUUGAGCUUGCAUAGUAUUUAGUUA the same measures were 0.691 ± 0.067 and 0.0333 ± 0.0067.
Turning to UCCUGGAACUGCUUGCAUAGUAUUUAGUAA, the “pre-steady-state target cleavage rate” value was 0.419 ± 0.03 under setting [1] and 0.0135 ± 0.0036 under setting [2].
For UCCUGGAACAGCUUGCAAAGUAUUUAGUAA, the “pre-steady-state target cleavage rate” value came out at 0.599 ± 0.049 under setting [1] and 0.0202 ± 0.0052 under setting [2].
For UCCUGGAACAGCAUGCAUAGUAUUAAGUUA the same measures were 0.642 ± 0.052 and 0.0124 ± 0.0043.
For UCCACCUACAGCUAGCAUAGUAUUAAGUUA the same measures were 0.516 ± 0.033 and 0.00634 ± 0.0019.
Turning to UCCACCUACAGCUUGCAUUGUAUUUAGUAA, the “pre-steady-state target cleavage rate” value was found to be 0.317 ± 0.026 under setting [1] and 0.0111 ± 0.0025 under setting [2].
Take AGGACCUACAGCUUGCAUAGUUAUUUAGUUA: the “pre-steady-state target cleavage rate” value turned out to be 0.0867 ± 0.014 under setting [1] and 0.00831 ± 0.0033 under setting [2].
For UCCACCUUGAGCUUGCAUAGUAUUUACAAA the same measures were 0.248 ± 0.038 and 0.00282 ± 0.0019.
For UCCUGGAUGAGCUUGCAUAGUAUUUAGAUUA, the “pre-steady-state target cleavage rate” value reads like this: under setting [1], 0.33 ± 0.069; under setting [2], 0.0263 ± 0.0096.
Turning to AGGACCUACAGCGUUGCAUAGUAUUUAGUUA, the “pre-steady-state target cleavage rate” value is, setting by setting: under setting [1], 1.21 ± 0.086; under setting [2], 0.0748 ± 0.015.
UCCUGCUACAGCUUGCAUCGUAUUUAGUUA: the “pre-steady-state target cleavage rate” value is 0.518 ± 0.046 under setting [1] and 0.0248 ± 0.0064 under setting [2].
